Assay results reported in patent US12286661B2, “Methods for making high intensity sweeteners” (Firmenich Incorporated, priority 2018, dated 2025).
Substitutions are numbered along the chain they refer to.

B1: SEQ ID NO 979: fusion protein having cucurbitadienol synthase activity (protein)
chain: MWRLKVGKESVGEKEEKWIKSISNHLGRQVWEFCSGENENDDDEAIAVANNSASKFENARNHFRNNRFHRKQSSDLFLAIQCEKEIIRNGAKNEGTTKVKEGEDVKKEAVKNTLERALSFYSAVQTSDGNWASDLGGPMFLLPGLVIALYVTGVLNSVLSKHHRQEMCRYIYNHQNEDGGWGLHIEGSSTMFGSALNYVALRLLGEAADGGEHGAMTKARSWILERGGATAITSWGKLWLSVLGVYEWSGNNPLPPEFWLLPYSLPFHPGRMWCHCRMVYLPMSYLYGKRFVGPITPIVLSLRKELYTIPYHEIDWNRSRNTCAKEDLYYPHPKMQDILWGSIYHVYEPLFSGWPGKRLREKAMKIAMEHIHYEDENSRYICLGPVNKVLNMLCCWVEDPYSDAFKFHLQRIPDYLWLAEDGMRMQGYNGSQLWDTAFSIQAIISTKLIDTFGPTLRKAHHFVKHSQIQEDCPGDPNVWFRHIHKGAWPFSTRDHGWLISDCTAEGLKASLMLSKLPSKIVGEPLEKNRLCDAVNVLLSLQNENGGFASYELTRSYPWLELINPAETFGDIVIDYSYVECTSATMEALALFKKLHPGHRTKEIDAAIAKAANFLENMQKTDGSWYGCWGVCFTYAGWFGIKGLVAAGRTYNNCVAIRKACNFLLSKELPGGGWGESYLSCQNKVYTNLEGNKPHLVNTAWVMMALIEAGQGERDPAPLHRAARLLINSQLESGDFPQQEIMGVFNKNCMITYAAYRNIFPIWALGEYSHRVLDMGSAAPGSGSGSGMDQPRTIV
modifications: SS4e-B2 Full Gene AA seq
B2: SEQ ID NO 999: fusion protein having cucurbitadienol synthase activity (protein)
chain: MRGLTPKGSAAPGSGSGSGMWRLKVGKESVGEKEEKWIKSISNHLGRQVWEFCSGENENDDDEAIAVANNSASKFENARNHFRNNRFHRKQSSDLFLAIQCEKEIIRNGAKNEGTTKVKEGEDVKKEAVKNTLERALSFYSAVQTSDGNWASDLGGPMFLLPGLVIALYVTGVLNSVLSKHHRQEMCRYIYNHQNEDGGWGLHIEGSSTMFGSALNYVALRLLGEAADGGEHGAMTKARSWILERGGATAITSWGKLWLSVLGVYEWSGNNPLPPEFWLLPYSLPFHPGRMWCHCRMVYLPMSYLYGKRFVGPITPIVLSLRKELYTIPYHEIDWNRSRNTCAKEDLYYPHPKMQDILWGSIYHVYEPLFSGWPGKRLREKAMKIAMEHIHYEDENSRYICLGPVNKVLNMLCCWVEDPYSDAFKFHLQRIPDYLWLAEDGMRMQGYNGSQLWDTAFSIQAIISTKLIDTFGPTLRKAHHFVKHSQIQEDCPGDPNVWFRHIHKGAWPFSTRDHGWLISDCTAEGLKASLMLSKLPSKIVGEPLEKNRLCDAVNVLLSLQNENGGFASYELTRSYPWLELINPAETFGDIVIDYSYVECTSATMEALALFKKLHPGHRTKEIDAAIAKAANFLENMQKTDGSWYGCWGVCFTYAGWFGIKGLVAAGRTYNNCVAIRKACNFLLSKELPGGGWGESYLSCQNKVYTNLEGNKPHLVNTAWVMMALIEAGQGERDPAPLHRAARLLINSQLESGDFPQQEIMGVFNKNCMITYAAYRNIFPIWALGEYSHRVLDM
modifications: SS5e-C10 Full Gene AA seq
B3: SEQ ID NO 983: fusion protein having cucurbitadienol synthase activity (protein)
chain: MTTDNAAAYSGSAAPGSGSGSGMWRLKVGKESVGEKEEKWIKSISNHLGRQVWEFCSGENENDDDEAIAVANNSASKFENARNHFRNNRFHRKQSSDLFLAIQCEKEIIRNGAKNEGTTKVKEGEDVKKEAVKNTLERALSFYSAVQTSDGNWASDLGGPMFLLPGLVIALYVTGVLNSVLSKHHRQEMCRYIYNHQNEDGGWGLHIEGSSTMFGSALNYVALRLLGEAADGGEHGAMTKARSWILERGGATAITSWGKLWLSVLGVYEWSGNNPLPPEFWLLPYSLPFHPGRMWCHCRMVYLPMSYLYGKRFVGPITPIVLSLRKELYTIPYHEIDWNRSRNTCAKEDLYYPHPKMQDILWGSIYHVYEPLFSGWPGKRLREKAMKIAMEHIHYEDENSRYICLGPVNKVLNMLCCWVEDPYSDAFKFHLQRIPDYLWLAEDGMRMQGYNGSQLWDTAFSIQAIISTKLIDTFGPTLRKAHHFVKHSQIQEDCPGDPNVWFRHIHKGAWPFSTRDHGWLISDCTAEGLKASLMLSKLPSKIVGEPLEKNRLCDAVNVLLSLQNENGGFASYELTRSYPWLELINPAETFGDIVIDYSYVECTSATMEALALFKKLHPGHRTKEIDAAIAKAANFLENMQKTDGSWYGCWGVCFTYAGWFGIKGLVAAGRTYNNCVAIRKACNFLLSKELPGGGWGESYLSCQNKVYTNLEGNKPHLVNTAWVMMALIEAGQGERDPAPLHRAARLLINSQLESGDFPQQEIMGVFNKNCMITYAAYRNIFPIWALGEYSHRVLDM
modifications: SS5a-E8 Full Gene AA seq
B4: SEQ ID NO 987: fusion protein having cucurbitadienol synthase activity (protein)
chain: MALGNEIANLQEGSAAPGSGSGSGMWRLKVGKESVGEKEEKWIKSISNHLGRQVWEFCSGENENDDDEAIAVANNSASKFENARNHFRNNRFHRKQSSDLFLAIQCEKEIIRNGAKNEGTTKVKEGEDVKKEAVKNTLERALSFYSAVQTSDGNWASDLGGPMFLLPGLVIALYVTGVLNSVLSKHHRQEMCRYIYNHQNEDGGWGLHIEGSSTMFGSALNYVALRLLGEAADGGEHGAMTKARSWILERGGATAITSWGKLWLSVLGVYEWSGNNPLPPEFWLLPYSLPFHPGRMWCHCRMVYLPMSYLYGKRFVGPITPIVLSLRKELYTIPYHEIDWNRSRNTCAKEDLYYPHPKMQDILWGSIYHVYEPLFSGWPGKRLREKAMKIAMEHIHYEDENSRYICLGPVNKVLNMLCCWVEDPYSDAFKFHLQRIPDYLWLAEDGMRMQGYNGSQLWDTAFSIQAIISTKLIDTFGPTLRKAHHFVKHSQIQEDCPGDPNVWFRHIHKGAWPFSTRDHGWLISDCTAEGLKASLMLSKLPSKIVGEPLEKNRLCDAVNVLLSLQNENGGFASYELTRSYPWLELINPAETFGDIVIDYSYVECTSATMEALALFKKLHPGHRTKEIDAAIAKAANFLENMQKTDGSWYGCWGVCFTYAGWFGIKGLVAAGRTYNNCVAIRKACNFLLSKELPGGGWGESYLSCQNKVYTNLEGNKPHLVNTAWVMMALIEAGQGERDPAPLHRAARLLINSQLESGDFPQQEIMGVFNKNCMITYAAYRNIFPIWALGEYSHRVLDM
modifications: SS5d-E7 Full Gene AA seq
B5: SEQ ID NO 995: fusion protein having cucurbitadienol synthase activity (protein)
chain: B4 chain with A2S, L3S, G4S, N5K, E6K, A8T, N9S, L10V, Q11K, E12Q
modifications: SS5d-G7 Full Gene AA seq
B6: SEQ ID NO 991: fusion protein having cucurbitadienol synthase activity (protein)
chain: MPVSVITTSTQPHVKEPVEEESGSAAPGSGSGSGMWRLKVGKESVGEKEEKWIKSISNHLGRQVWEFCSGENENDDDEAIAVANNSASKFENARNHFRNNRFHRKQSSDLFLAIQCEKEIIRNGAKNEGTTKVKEGEDVKKEAVKNTLERALSFYSAVQTSDGNWASDLGGPMFLLPGLVIALYVTGVLNSVLSKHHRQEMCRYIYNHQNEDGGWGLHIEGSSTMFGSALNYVALRLLGEAADGGEHGAMTKARSWILERGGATAITSWGKLWLSVLGVYEWSGNNPLPPEFWLLPYSLPFHPGRMWCHCRMVYLPMSYLYGKRFVGPITPIVLSLRKELYTIPYHEIDWNRSRNTCAKEDLYYPHPKMQDILWGSIYHVYEPLFSGWPGKRLREKAMKIAMEHIHYEDENSRYICLGPVNKVLNMLCCWVEDPYSDAFKFHLQRIPDYLWLAEDGMRMQGYNGSQLWDTAFSIQAIISTKLIDTFGPTLRKAHHFVKHSQIQEDCPGDPNVWFRHIHKGAWPFSTRDHGWLISDCTAEGLKASLMLSKLPSKIVGEPLEKNRLCDAVNVLLSLQNENGGFASYELTRSYPWLELINPAETFGDIVIDYSYVECTSATMEALALFKKLHPGHRTKEIDAAIAKAANFLENMQKTDGSWYGCWGVCFTYAGWFGIKGLVAAGRTYNNCVAIRKACNFLLSKELPGGGWGESYLSCQNKVYTNLEGNKPHLVNTAWVMMALIEAGQGERDPAPLHRAARLLINSQLESGDFPQQEIMGVFNKNCMITYAAYRNIFPIWALGEYSHRVLDM
modifications: SS5d-G5 Full Gene AA seq

tested on: cucurbitadienol synthase activity; test: Cucurbitadienol synthase activities of fusion proteins in yeast strain with oxidosqualene boost, LCMS; type: cell-based, S. cerevisiae; conditions: average % activities over the average activities of the parent enzyme (Cucumis melo cucurbitadienol synthase)
Procedure, shortened: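 Activity expressed as mean percent of the unfused parent enzyme (n=8), using 409 and 427 ion peak ratios of cucurbitadienol against an internal standard by C4 LCMS. Fusion variants of codon-optimized melon synthase were expressed in yeast with boosted oxidosqualene.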

Molecule	Activity (as compared to the parent) [%]
B1	96
B2	103
B3	80
B4	111
B5	124
B6	114
